Measurements as given in the supplement of paper PMC11417369.
The other results are listed elsewhere or left out.

test system: PfSIP2 AP2 domain 1 (GST-tagged); test: gcPBM binding intensity (ln(normalized median fluorescence intensity)); higher = stronger DNA binding
How it was run: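 Binding of GST-tagged P. falciparum DNA-binding domains, expressed in E. coli and used at about 25 μg on average, was carried out for 1 h in 1× PBS containing 1% milk, 0.2 mg/ml BSA, 0.5% salmon testes DNA and 0.03% Triton X-100. The target was an Agilent 4 × 180k array of primer-extended double-stranded 36-bp intergenic genomic probes plus negative controls, read with Alexa488 anti-GST antibody at 488 nm. Binding intensity is the highest Masliner-normalised natural-log median intensity across replicate spots of either probe orientation.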

Sequence	gcPBM binding intensity (ln)
TATACCAATGAATGAGTGCAAAGAAGATAAGGAAAA	8.58
AATAAAATGAAATGAAATAAAAAAAAAAAAAAAATG [TGCATGCA_negctrl_site305]	6.71
ACTTATTGTGGTTTTGCATGTAGCATTTTTACATAC [TGCATGCA_site247]	7.53
TATATTATAAACATATGTACATATGTATAAATACAT [XGTACX_site722]	7.14
AAAAAAAAAAAAAAATTAAAGTAATGGAAAAAAAAA [CACACA_negctrl_site1666]	7.02
AACATATATATATACACACACATATATATATGAAAT [CACACA_site279]	7.12
ATTATTAATATTATATGTACGCACTATATCAAGGCT [XGTACX_site6468]	7.85
AATCATTTTATTATCCTAACAAAAAAAAAATATATT [CACACA_negctrl_site115]	6.86
ACGATGCATTAATCTGCACACCACAACAAAACGTTT [CACACA_site899]	7.71
ACAACGCGTTAAATGTGTACATATTTATAAGTATAT [XGTACX_site8777]	7.04
AGCTATGTATTCTACACACACATACAGACATATATA [CACACA_site3428]	7.13
TTTGCATTTCTTAATTGTACTTAAAAAAAAAATAAT [XGTACX_site758]	7.34
TTCCCTCCTCAAAATTGTACTAGAATAATAACATAA [XGTACX_site8765]	7.21
TACACGCTAAAATACACACACACACCCACATATATA [CACACA_site4153]	7.18
TTTTTTAAACATATTATGTGTATTACATAGTTATGC [XGTACX_negctrl_site596]	6.81
TTATAATATTATAAAATAACATTTATTAATTATTGG [CACACA_negctrl_site1794]	6.62
TTATTATATTAAAATTGTACTTGCTTTCAATATGAT [XGTACX_site5305]	6.97
TAAACGTTATATAGTGCATGTCATATTTTATTATAT [TGCATGCA_site935]	9.15
TTCCAAAAAATTATTACACACATATGGGCACATATA [CACACA_site679]	6.94

Sequence	gcPBM binding intensity (ln)
TATACATACATACATACACACACACCGATATATACA [CACACA_site8184]	7.31
TGTTTCTGCTCTGGACATTTTTAAAAAAGGGAAAGC [CACACA_negctrl_site1463]	7.21
ACGCTAATTATGTGCACACAAATTAAAGGTCTACAA [CACACA_site147]	9.46
TGCCTATTTTGGATGTGTACACATATATATATTTAT [XGTACX_site6741]	7.11
ACAAAAAAACATGAAACACACACAAATATATATATA [CACACA_site8566]	8.71
TATAAAATTAAACAAAGTACTAGACATATATATAGA [XGTACX_site3247]	6.93
ATTCTATAATATAAGAGTACTTATTTTTTTTAATTT [XGTACX_site7671]	7.04
AATGTTATTTGTTTATCACACATTAGGATGTTTATA [CACACA_site5710]	6.79
AAAAAAAAAAAAAACACACACACAAGAGTATATAAA [CACACA_site6580]	7.24
ATGAATTTATTACATTGTACATTTTTAAAAGGTTAC [XGTACX_site124]	7.15
TTATATATTTTTTTTTGTACATAGAAGAGGGAAAAA [XGTACX_site2178]	7.5
AAATGAGTATTCATATGTACACAAATAAAAAATTAA [XGTACX_site2968]	7.12
ATGGAAGGAAACAATAAAAAAAAAAAAAAATATATA [XGTACX_negctrl_site594]	6.8
CATTTAAAGGACAAGCTGCACTTACAAAATAAAAAA	7.52
AATGACAACCTTGTCACACATATATATATATATATA [CACACA_site5977]	9.44
TTTTTTATTTGACAAGCACACACTTAAATATATATA [CACACA_site3358]	7.08
ATTTCTAGTTTAAGATGTACTTTAATAAAAATTATT [XGTACX_site4820]	7.17
ATCTTTGGAAATTTATGTACTTATATTTATATTGTA [XGTACX_site6606]	7.06
AAATATCAACAAAAATGTACAAATGTAAAAGAATAT [XGTACX_site4676]	7.18

Sequence	gcPBM binding intensity (ln)
AGGTTAAAAATAAATACACACATTTTATGTCTGTAT [CACACA_site996]	6.65
ACTATACAGTTATACACACACATATATATATAATAT [CACACA_site310]	7.62
TTTTTTTTTTAATAAAGTACATATAAATTACCTAAT [XGTACX_site4434]	6.87
GAAATAATTTCATATACACACATATACATACATACA [CACACA_site1358]	7.5
AAAAGAATATAAAGATACATTGTGATATGGGACAAA [CACACA_negctrl_site405]	6.82
TATATATATATTGAAGTGCAAAATACTGTACGTAAT	8.77
TTAATTCTACTTATTACACACATATTAATCAAAAAT [CACACA_site1478]	7.25
TATATATATATAAACAGTACACAAATTGTAAATAAA [XGTACX_site8268]	8.9
TATATATATATATATATTGAAATTTATAATAATATT [TGCATGCA_negctrl_site407]	9.4
AACATAGAAACGTTATGTACATATTGAAGGATATTA [XGTACX_site6015]	7.37
AAATATTTATACTATACACACCCAATTTAAAAAAAA [CACACA_site6669]	6.99
ATTTTTTTATGTACACAAAAAAAAAAAAAAATTTAA [CACACA_negctrl_site1028]	7.29
ATATTATAATTAAAACGTACGTATTTATGAATTCAT [XGTACX_site1047]	7.2
TACATAAATTAAAACACACACACACTAAAAAAAAAA [CACACA_site7130]	7.05
TATTAATTAAACCATACACACATAATTTTTTTATAA [CACACA_site843]	6.92
GTTAATATTTACTACACACACTTAAAATATGTATAT [CACACA_site4194]	7.09
TTTTCATTTTTCTTTACACACATATATTTATTTATA [CACACA_site7119]	7.24
ACCCATGATTGTTACAGTACTCTACTTTCTAATATA [XGTACX_site98]	7.44
AAACTGTCGCTCATAAAGAAGAATGAAATACATTAA [TGCATGCA_negctrl_site60]	7.04
